Measurements: patent US20250002564A1 (HOSPITAL FOR SICK CHILDREN, published 2025)

B1: MB 158 (other)
chain 1: DIQMTQSPSSLSASVGDRVTITCRASQSISRYLNWYQQKPGKAPKLLIYDASNLESGVPSRFSGSGSGTDFTLTISSLQPEDFATYYCQQANSFPLTFGGGTKVDIKRTVAAPSVFIFPPSDEQLKSGTASVVCLLNNFYPREAKVQWKVDNALQSGNSQESVTEQDSKDSTYSLSSTLTLSKADYEKHKVYACEVTHQGLSSPVTKSFNRGECGGGGSGGGGSGGGGSGGGGSGGGGSGGGGSGGGGSGGGGSGGGGSGGGGSGGGGSGGGGSGGGGSGGGGSQVQLVQSGAEVKKPGASVKVSCKASGYTFTGYYMHWVRQAPGQGLEWMGWINPLNGGTNFAPKFQGRVTMTRDTSTSTVYMELSSLRSEDTAVYYCARDPGGSYSNDAFDIWGQGTLVTVSSASTKGPSVFPLAPSSKSTSGGTAALGCLVKDYFPEPVTVSWNSGALTSGVHTFPAVLQSSGLYSLSSVVTVPSSSLGTQTYICNVNHKPSNTKVDKKVEPKSCGGGGSGGGGSGGGGSGGGGSGGGGSGG[about 200 residues omitted]
chain 2: [human IgG1 Fc omitted]GGGGSGGGGSGGGGSGGGGSGGGGSGGGGSGGGGSGGGGSGGGGSGGGGSGGGGSGGGGSGGGGSGGGGS[human IgG1 Fc omitted]GGGGSGGGGSGGGGSGGGGSGGGGSGGSSQIRQNYSTDVEAAVNSLVNLYLQASYTYLSLGFYFDRDDVALEGVSHFFRELAEEKREGYERLLKMQNQRGGRALFQDIKKPAEDEW
chain 3: DIQMTQSPSSLSASVGDRVTITCRASQSISRYLNWYQQKPGKAPKLLIYDASNLESGVPSRFSGSGSGTDFTLTISSLQPEDFATYYCQQANSFPLTFGGGTKVDIKRTVAAPSVFIFPPSDEQLKSGTASVVCLLNNFYPREAKVQWKVDNALQSGNSQESVTEQDSKDSTYSLSSTLTLSKADYEKHKVYACEVTHQGLSSPVTKSFNRGECGGGGSGGGGSGGGGSGGGGSGGGGSGGGGSGGGGSGGGGSGGGGSGGGGSGGGGSGGGGSGGGGSGGGGSQVQLVQSGAEVKKPGASVKVSCKASGYTFTGYYMHWVRQAPGQGLEWMGWINPLNGGTNFAPKFQGRVTMTRDTSTSTVYMELSSLRSEDTAVYYCARDPGGSYSNDAFDIWGQGTLVTVSSASTKGPSVFPLAPSSKSTSGGTAALGCLVKDYFPEPVTVSWNSGALTSGVHTFPAVLQSSGLYSLSSVVTVPSSSLGTQTYICNVNHKPSNTKVDKKVEPKSCGGGGSGGGGSGGGGSGGGGSGGGGSGGGKTPDAMKAAMALEKKLNQALLDLHALGSARTDPHLCDFLETHFLDEEVKLIKKMGDHLTNLHRLGGPEAGLGEYLFERLTLRHD
B2: MB 180 (other)
chain 1: DIVMTQSPLSLPVTPGEPASISCRSSQSLLHSNGYNYLDWYLQKPGQSPQLLIYAASSLQSGVPDRFSGSGSGTDFTLKISRVEAEDVGVYYCQQYYSSPYTFGQGTKLEIKRTVAAPSVFIFPPSDEQLKSGTASVVCLLNNFYPREAKVQWKVDNALQSGNSQESVTEQDSKDSTYSLSSTLTLSKADYEKHKVYACEVTHQGLSSPVTKSFNRGECGGGGSGGGGSGGGGSGGGGSGGGGSGGGGSGGGGSGGGGSGGGGSGGGGSGGGGSGGGGSGGGGSGGGGSQVQLVQSGAEVKKPGSSVKVSCKASGYTFTSYAMHWVRQAPGQGLEWMGRISPRSGGTKYAQRFQGRVTITADESTSTAYMELSSLRSEDTAVYYCAREAVAGTHPQAGDFDLWGRGTLVTVSSASTKGPSVFPLAPSSKSTSGGTAALGCLVKDYFPEPVTVSWNSGALTSGVHTFPAVLQSSGLYSLSSVVTVPSSSLGTQTYICNVNHKPSNTKVDKKVEPKSCGGGGSGGGGSGGGGSGGGGSGGGGSGG[about 200 residues omitted]
chain 2: [human IgG1 Fc omitted]GGGGSGGGGSGGGGSGGGGSGGGGSGGGGSGGGGSGGGGSGGGGSGGGGSGGGGSGGGGSGGGGSGGGGS[human IgG1 Fc omitted]GGGGSGGGGSGGGGSGGGGSGGGGSGGSSQIRQNYSTDVEAAVNSLVNLYLQASYTYLSLGFYFDRDDVALEGVSHFFRELAEEKREGYERLLKMQNQRGGRALFQDIKKPAEDEW
chain 3: DIVMTQSPLSLPVTPGEPASISCRSSQSLLHSNGYNYLDWYLQKPGQSPQLLIYAASSLQSGVPDRFSGSGSGTDFTLKISRVEAEDVGVYYCQQYYSSPYTFGQGTKLEIKRTVAAPSVFIFPPSDEQLKSGTASVVCLLNNFYPREAKVQWKVDNALQSGNSQESVTEQDSKDSTYSLSSTLTLSKADYEKHKVYACEVTHQGLSSPVTKSFNRGECGGGGSGGGGSGGGGSGGGGSGGGGSGGGGSGGGGSGGGGSGGGGSGGGGSGGGGSGGGGSGGGGSGGGGSQVQLVQSGAEVKKPGSSVKVSCKASGYTFTSYAMHWVRQAPGQGLEWMGRISPRSGGTKYAQRFQGRVTITADESTSTAYMELSSLRSEDTAVYYCAREAVAGTHPQAGDFDLWGRGTLVTVSSASTKGPSVFPLAPSSKSTSGGTAALGCLVKDYFPEPVTVSWNSGALTSGVHTFPAVLQSSGLYSLSSVVTVPSSSLGTQTYICNVNHKPSNTKVDKKVEPKSCGGGGSGGGGSGGGGSGGGGSGGGGSGGGKTPDAMKAAMALEKKLNQALLDLHALGSARTDPHLCDFLETHFLDEEVKLIKKMGDHLTNLHRLGGPEAGLGEYLFERLTLRHD
B3: MB 120 (other)
chain 1: EIVMTQSPATLSVSPGERATLSCRASQSVSSRYLAWYQQKPGQAPRLLIYGASTRATGIPARFSGSGSGTEFTLTISSLQSEDFAVYYCQQYYTTPRTFGQGTRLEIKRTVAAPSVFIFPPSDEQLKSGTASVVCLLNNFYPREAKVQWKVDNALQSGNSQESVTEQDSKDSTYSLSSTLTLSKADYEKHKVYACEVTHQGLSSPVTKSFNRGECGGGGSGGGGSGGGGSGGGGSGGGGSGGGGSGGGGSGGGGSGGGGSGGGGSGGGGSGGGGSGGGGSGGGGSQVQLVQSGAEVKKPGASVKVSCKASGYTFTSYDINWVRQAPGQGLEWMGMIDPSGGSTSYAQKFQGRVTMTRDTSTSTVYMELSSLRSEDTAVYYCAKDFGGGTRYDYWYFDLWGRGTLVTVSSASTKGPSVFPLAPSSKSTSGGTAALGCLVKDYFPEPVTVSWNSGALTSGVHTFPAVLQSSGLYSLSSVVTVPSSSLGTQTYICNVNHKPSNTKVDKKVEPKSCGGGGSGGGGSGGGGSGGGGSGGGGSGG[about 200 residues omitted]
chain 2: [human IgG1 Fc omitted]GGGGSGGGGSGGGGSGGGGSGGGGSGGGGSGGGGSGGGGSGGGGSGGGGSGGGGSGGGGSGGGGSGGGGS[human IgG1 Fc omitted]GGGGSGGGGSGGGGSGGGGSGGGGSGGSSQIRQNYSTDVEAAVNSLVNLYLQASYTYLSLGFYFDRDDVALEGVSHFFRELAEEKREGYERLLKMQNQRGGRALFQDIKKPAEDEW
chain 3: EIVMTQSPATLSVSPGERATLSCRASQSVSSRYLAWYQQKPGQAPRLLIYGASTRATGIPARFSGSGSGTEFTLTISSLQSEDFAVYYCQQYYTTPRTFGQGTRLEIKRTVAAPSVFIFPPSDEQLKSGTASVVCLLNNFYPREAKVQWKVDNALQSGNSQESVTEQDSKDSTYSLSSTLTLSKADYEKHKVYACEVTHQGLSSPVTKSFNRGECGGGGSGGGGSGGGGSGGGGSGGGGSGGGGSGGGGSGGGGSGGGGSGGGGSGGGGSGGGGSGGGGSGGGGSQVQLVQSGAEVKKPGASVKVSCKASGYTFTSYDINWVRQAPGQGLEWMGMIDPSGGSTSYAQKFQGRVTMTRDTSTSTVYMELSSLRSEDTAVYYCAKDFGGGTRYDYWYFDLWGRGTLVTVSSASTKGPSVFPLAPSSKSTSGGTAALGCLVKDYFPEPVTVSWNSGALTSGVHTFPAVLQSSGLYSLSSVVTVPSSSLGTQTYICNVNHKPSNTKVDKKVEPKSCGGGGSGGGGSGGGGSGGGGSGGGGSGGGKTPDAMKAAMALEKKLNQALLDLHALGSARTDPHLCDFLETHFLDEEVKLIKKMGDHLTNLHRLGGPEAGLGEYLFERLTLRHD
B4: MB 254 (other)
chain 1: DIQMTQSPSSLSASVGDRVTITCRASQGISSYLAWYQQKPGKAPKLLIYDASSLQIGVPSRFSGSGSGTDFTLTISSLQPEDFATYYCLQSYSTPPWTFGQGTKVEIKRTVAAPSVFIFPPSDEQLKSGTASVVCLLNNFYPREAKVQWKVDNALQSGNSQESVTEQDSKDSTYSLSSTLTLSKADYEKHKVYACEVTHQGLSSPVTKSFNRGECGGGGSGGGGSGGGGSGGGGSGGGGSGGGGSGGGGSGGGGSGGGGSGGGGSGGGGSGGGGSGGGGSGGGGSEVQLLESGGGLVQPGGSLRLSCAASGFTFSSSAMHWVRQAPGKGLEWVSAIGTGGDTYYADSVKGRFTISRDNSKNTLYLQMNSLRAEDTAVYYCAREGDGYNFYFDYWGQGTLVTVSSASTKGPSVFPLAPSSKSTSGGTAALGCLVKDYFPEPVTVSWNSGALTSGVHTFPAVLQSSGLYSLSSVVTVPSSSLGTQTYICNVNHKPSNTKVDKKVEPKSCGGGGSGGGGSGGGGSGGGGSGGGGSGG[about 200 residues omitted]
chain 2: [human IgG1 Fc omitted]GGGGSGGGGSGGGGSGGGGSGGGGSGGGGSGGGGSGGGGSGGGGSGGGGSGGGGSGGGGSGGGGSGGGGS[human IgG1 Fc omitted]GGGGSGGGGSGGGGSGGGGSGGGGSGGSSQIRQNYSTDVEAAVNSLVNLYLQASYTYLSLGFYFDRDDVALEGVSHFFRELAEEKREGYERLLKMQNQRGGRALFQDIKKPAEDEW
chain 3: DIQMTQSPSSLSASVGDRVTITCRASQGISSYLAWYQQKPGKAPKLLIYDASSLQIGVPSRFSGSGSGTDFTLTISSLQPEDFATYYCLQSYSTPPWTFGQGTKVEIKRTVAAPSVFIFPPSDEQLKSGTASVVCLLNNFYPREAKVQWKVDNALQSGNSQESVTEQDSKDSTYSLSSTLTLSKADYEKHKVYACEVTHQGLSSPVTKSFNRGECGGGGSGGGGSGGGGSGGGGSGGGGSGGGGSGGGGSGGGGSGGGGSGGGGSGGGGSGGGGSGGGGSGGGGSEVQLLESGGGLVQPGGSLRLSCAASGFTFSSSAMHWVRQAPGKGLEWVSAIGTGGDTYYADSVKGRFTISRDNSKNTLYLQMNSLRAEDTAVYYCAREGDGYNFYFDYWGQGTLVTVSSASTKGPSVFPLAPSSKSTSGGTAALGCLVKDYFPEPVTVSWNSGALTSGVHTFPAVLQSSGLYSLSSVVTVPSSSLGTQTYICNVNHKPSNTKVDKKVEPKSCGGGGSGGGGSGGGGSGGGGSGGGGSGGGKTPDAMKAAMALEKKLNQALLDLHALGSARTDPHLCDFLETHFLDEEVKLIKKMGDHLTNLHRLGGPEAGLGEYLFERLTLRHD

Key:
[1] = target: T1, SARS-CoV-2 Spike on wild-type pseudotyped virus (PsV) (SARS-CoV-2); assay: cell-based or functional assay
[2] = target: T1, SARS-CoV-2 Spike on wild-type …; assay: cell-based or functional assay; remark: listed apart in the source

Row | Binder | IC50 SARS-CoV2 PsV (MB) [1] [µg/mL] | Median IC50 [2]
1 | B1 | 0.1 | 0.1 µg/mL and 43 pM
2 | B2 | 0.89 | 0.89 µg/mL and 387 pM
3 | B3 | 7.2 | 7.2 µg/mL and 3.1 nM
4 | B4 | 9.3 | 9.3 µg/mL and 4 nM

Where “and” joins values, the source holds several entries; their conditions need not be identical. Identical values can stand only once.
